Measured values reported in PMC9574860, “Chemical Toolkit for PARK7: Potent, Selective, and High-Throughput” (Journal of Medicinal Chemistry, 2022).
The whole screen tested about 7,900 compounds, of which about 400 (5.1%) showed an effect of 50% or more. The list shows a part of the results.

These molecules were tested against Parkinson's disease protein 7 (PARK7/DJ1) (human, UniProt Q99497) (assay: primary screen, percent inhibition; read as competition with a fluorescent probe by fluorescence polarization; higher = more effect of the substance). Conditions: 100 µM.
Chain of Parkinson's disease protein 7 (PARK7/DJ1) (Q99497 whole entry, looked up, the tested form may be a part): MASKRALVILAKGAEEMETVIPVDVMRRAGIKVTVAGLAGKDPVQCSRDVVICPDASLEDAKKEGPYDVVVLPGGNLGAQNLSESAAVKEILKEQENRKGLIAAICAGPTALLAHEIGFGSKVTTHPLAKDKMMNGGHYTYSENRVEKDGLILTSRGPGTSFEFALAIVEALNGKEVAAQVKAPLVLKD
How it was run: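 Fluorescence-polarization probe displacement (JYQ-107, 20 nM final, 2 h) after 2 h preincubation of PARK7 (0.2 μM final) with each fragment at 100 μM final. Read-out ex/em 480/520 nm; remaining activity derived from FP signal loss relative to reference controls.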

`Cc1c(C=CC(=O)c2cccc(O)c2)cc(C#N)n1C` was tested. Which Inhibition % did it give?
The Inhibition % was 8.99%.

For `CCC(C)C(C)Nc1nccnc1C#N` (stereo not drawn), which Inhibition % is on record?
Its Inhibition % is 17.8%.

With `OB(O)c1ccccc1OC1CCCCC1` as the molecule, how does the Inhibition % read?
Its Inhibition % is 10%.

Which Inhibition % does the source give for `COC1(C)CN(c2nc(C#N)c(Cl)s2)C1` here?
Its Inhibition % is 9.88%.

How did the Inhibition % turn out when `C=CC(=O)N(C)C1CCC(SC)C1` (stereo not drawn) was run?
Its Inhibition % is 5.07%.

How did the Inhibition % turn out when `CN(C)c1ncc(B2OC(C)(C)C(C)(C)O2)cn1` was run?
Its Inhibition % is 2.49%.

How did the Inhibition % turn out when `CN(C(=O)Nc1cccc(C2OCCO2)c1)C1CCOC1` (stereo not drawn) was run?
The Inhibition % was 6.22%.

Which Inhibition % does the source give for `CC1CN(C(=O)c2c[nH]c(C#N)c2)C1` here?
Its Inhibition % is 12.5%.

How did the Inhibition % turn out when `CCOc1cc(C)c(Cl)cc1S(=O)(=O)n1ccc(C)n1` was run?
The Inhibition % was 10.4%.

For `COc1ccc(C(C)C)cc1S(=O)(=O)n1ccnc1C`, which Inhibition % is on record?
The Inhibition % was 0.397%.

With `C=CC(=O)Nc1ccc(OC)c(OC)c1` as the molecule, how does the Inhibition % read?
Its Inhibition % is 22.9%.

`CC1Cc2ccccc2N1C(=O)CC1C=CS(=O)(=O)C1` (stereo not drawn) was tested. Which Inhibition % did it give?
Its Inhibition % is 7.7%.

With `C=CC(=O)N(C)Cc1cnc(N(C)C)nc1` as the molecule, how does the Inhibition % read?
The Inhibition % was 5.02%.

For `N#Cc1cnn(Cc2ccc(S(=O)(=O)F)cc2)c1`, which Inhibition % is on record?
The Inhibition % was 7.21%.

Which Inhibition % does the source give for `N#Cc1ccc(NC(=O)CN2C(=O)CCC2=O)cc1` here?
Its Inhibition % is 6.11%.

How did the Inhibition % turn out when `C[C@@H](O)CNC(=O)CCn1c(S)nc2ccccc2c1=O` was run?
Its Inhibition % is 3.61%.

Which Inhibition % does the source give for `Cc1cc(C)n(S(=O)(=O)c2ccc(Cl)cc2)n1` here?
The Inhibition % was 2.13%.

How did the Inhibition % turn out when `O=C(O)[C@H]1CCCN1C(=O)C=Cc1ccccc1Cl` was run?
The Inhibition % was 4.49%.

For `Cc1[nH]ncc1C(=O)N1CCC(C2NC(=O)C2(C)C)CC1` (stereo not drawn), which Inhibition % is on record?
Its Inhibition % is 3.69%.

With `C=CC(=O)N1CCCC(N(C)S(C)(=O)=O)C1` (stereo not drawn) as the molecule, how does the Inhibition % read?
The Inhibition % was 9.78%.

With `O=C(CCl)N(C1CCCC1)C1CC1` as the molecule, how does the Inhibition % read?
The Inhibition % was 51.2%.

How did the Inhibition % turn out when `C=CC(=O)N1C[C@H](OC)[C@H](OC)C1` was run?
The Inhibition % was 6.32%.

`COC(=O)C1OC12CCOC2` (stereo not drawn) was tested. Which Inhibition % did it give?
The Inhibition % was 5.75%.

How did the Inhibition % turn out when `CC1(C)OB(c2ccc(OCCN3CCCC3)cc2)OC1(C)C.Cl` was run?
The Inhibition % was 8.54%.

Which Inhibition % does the source give for `CCn1nc(C)c(B2OC(C)(C)C(C)(C)O2)c1C` here?
Its Inhibition % is 5.39%.

With `O=S1(=O)C=CCCC1` as the molecule, how does the Inhibition % read?
The Inhibition % was 10.4%.

How did the Inhibition % turn out when `CC(C)(C)[C@H]1OCC[C@@H]1CNC(=O)c1ccc(C#N)[nH]1` was run?
The Inhibition % was 7.78%.

Which Inhibition % does the source give for `O=C(CCl)Nc1ccc([N+](=O)[O-])cc1` here?
The Inhibition % was 32.8%.

`O=c1c2ccccc2nc(S)n1C1CCS(=O)(=O)C1` (stereo not drawn) was tested. Which Inhibition % did it give?
The Inhibition % was 2.61%.

For `CCn1nc2c(cc1=O)CN(C1CC(C)OC1=O)CC2` (stereo not drawn), which Inhibition % is on record?
The Inhibition % was 61.4%.

With `Cc1cc(B2OC(C)(C)C(C)(C)O2)n(C)n1` as the molecule, how does the Inhibition % read?
The Inhibition % was 18.2%.

How did the Inhibition % turn out when `C=CC(=O)N1CCCC1c1cccc2c1OCCO2` (stereo not drawn) was run?
The Inhibition % was 4.1%.

How did the Inhibition % turn out when `C=CC(=O)N1CCC(CC)C1C` (stereo not drawn) was run?
Its Inhibition % is 8.25%.

Which Inhibition % does the source give for `Br.N#CC(=Cc1ccc(O)cc1)c1nnc2n1CCCCC2` here?
Its Inhibition % is 9.92%.

`CC(C)NC(=O)C(C#N)=Cc1ccc(F)cc1` was tested. Which Inhibition % did it give?
The Inhibition % was 8.01%.

Which Inhibition % does the source give for `C=CC(=O)NCc1cnn2ccccc12` here?
Its Inhibition % is 19.8%.

For `Cl.ClCC1CCCCCN1` (stereo not drawn), which Inhibition % is on record?
Its Inhibition % is 0.798%.

For `CC(=O)NC(C)c1ccc(C(=O)CCl)cc1` (stereo not drawn), which Inhibition % is on record?
Its Inhibition % is 38.2%.

Which Inhibition % does the source give for `O=C(CCc1ccc(S(=O)(=O)F)cc1)N1CCCCC1` here?
The Inhibition % was 12.4%.

Which Inhibition % does the source give for `O=C(CCl)NC1CCOCC1` here?
The Inhibition % was 10.5%.

For `C=CC(=O)NC[C@H]1CC(c2nnc(C)[nH]2)C[C@H]1O` (stereo partly drawn), which Inhibition % is on record?
Its Inhibition % is 16.8%.

With `Clc1ccc2c(c1)C1OC1C2` (stereo not drawn) as the molecule, how does the Inhibition % read?
The Inhibition % was 10.7%.

For `COc1nc(C#N)sc1C`, which Inhibition % is on record?
The Inhibition % was 2.94%.

`Cl.O=C(CCl)N1CCN(CC(=O)N2CCCC2)CC1` was tested. Which Inhibition % did it give?
Its Inhibition % is 2.27%.

With `CN(C(=O)Cn1cnc(C#N)n1)C1CCCCC1` as the molecule, how does the Inhibition % read?
Its Inhibition % is 6.19%.

With `CC1(C)OB(c2ccc(OCC(F)F)cc2F)OC1(C)C` as the molecule, how does the Inhibition % read?
The Inhibition % was 2.02%.

For `COc1ccc(S(=O)(=O)F)cc1O`, which Inhibition % is on record?
Its Inhibition % is 54%.

How did the Inhibition % turn out when `CC(NC(=O)CCl)C(c1ccccc1)N1CCOCC1.Cl` (stereo not drawn) was run?
The Inhibition % was 10.7%.

`C=CC(=O)N(C)C1CCCc2c1cnn2C` (stereo not drawn) was tested. Which Inhibition % did it give?
Its Inhibition % is 11%.

With `Cc1ccc(OC2CCCC2)c(B(O)O)c1` as the molecule, how does the Inhibition % read?
Its Inhibition % is 2.59%.

For `C=CC(=O)NCCc1cn2c(n1)SCC2`, which Inhibition % is on record?
The Inhibition % was 13.4%.

For `CCc1ccc(S(=O)(=O)n2cc(C)nc2CC)cc1`, which Inhibition % is on record?
Its Inhibition % is 6.17%.

For `O=C(CCl)Nc1cccc(C(=O)N2CCSCC2)c1`, which Inhibition % is on record?
Its Inhibition % is 6.3%.

Which Inhibition % does the source give for `C=CC(=O)Nc1ccccc1C` here?
Its Inhibition % is 4.88%.

Which Inhibition % does the source give for `COc1ccc2nc(C#N)ccc2c1` here?
Its Inhibition % is 3.18%.

For `Cc1cccc(NC(=O)C(C#N)=Cc2ccco2)c1`, which Inhibition % is on record?
Its Inhibition % is 15.3%.

How did the Inhibition % turn out when `COc1cc(OC)c(OC)cc1CS` was run?
The Inhibition % was 63.9%.

`COc1ccc2ccccc2c1C=C(C#N)C(N)=O` was tested. Which Inhibition % did it give?
Its Inhibition % is 13.5%.

For `Cc1ccc(C=CS(=O)(=O)Nc2ccnn2C(C)C)cc1`, which Inhibition % is on record?
The Inhibition % was 13%.

How did the Inhibition % turn out when `C#CC(=O)CCc1ccccc1` was run?
The Inhibition % was 14.6%.

Which Inhibition % does the source give for `Cc1ccc(N(C(=O)CCl)C2C=CS(=O)(=O)C2)cc1C` (stereo not drawn) here?
Its Inhibition % is 5.05%.

How did the Inhibition % turn out when `COc1ccc(NC(=O)c2ccccc2NC(=O)CCl)cc1` was run?
Its Inhibition % is 2.88%.

`CCC1c2ccsc2CCN1C(=O)CCl` (stereo not drawn) was tested. Which Inhibition % did it give?
Its Inhibition % is 14.7%.

For `CN(C)CCn1c(S)nc2ccsc2c1=O`, which Inhibition % is on record?
Its Inhibition % is 4.97%.

How did the Inhibition % turn out when `C=CC(=O)Nc1cc(-c2ccnn2C)ccc1C` was run?
The Inhibition % was 6.59%.

How did the Inhibition % turn out when `CC(CCO)NC(=O)c1cccnc1S` (stereo not drawn) was run?
The Inhibition % was 9.53%.

`Cc1ccc(C(=O)N2CCCCC2C2OCCO2)cc1F` (stereo not drawn) was tested. Which Inhibition % did it give?
The Inhibition % was 7.53%.

How did the Inhibition % turn out when `CC(C)c1nn(C)c(Cl)c1C=C(C#N)C(=O)O` was run?
Its Inhibition % is 15%.

How did the Inhibition % turn out when `C=CC(=O)N1CCN(C(=O)C2CC2)CC1(C)C` was run?
The Inhibition % was 7.47%.

`O=S(=O)(F)c1ccc(-c2cn([C@@H]3CC[C@H]3O)nn2)cc1` (racemic) was tested. Which Inhibition % did it give?
The Inhibition % was 34.3%.

`C=CC(=O)NC1CC2(CC2)C1` was tested. Which Inhibition % did it give?
The Inhibition % was 7.25%.

Which Inhibition % does the source give for `CCN(c1ccc(NC(=O)CCl)cc1)C(C)C.Cl` here?
Its Inhibition % is 98.6%.

Which Inhibition % does the source give for `Cc1ccn(S(=O)(=O)c2cc(C)c(C)cc2C)n1` here?
The Inhibition % was 12%.

How did the Inhibition % turn out when `CC1OB(O)c2cc(CO)c(F)cc21` (stereo not drawn) was run?
The Inhibition % was 1.93%.

How did the Inhibition % turn out when `N#CC(=Cc1ccc(Cl)cc1Cl)C(N)=O` was run?
The Inhibition % was 3.78%.

For `C=CC(=O)N1CC2CCCC2C1C(N)=O` (stereo not drawn), which Inhibition % is on record?
The Inhibition % was 2.15%.

With `NC(=O)Cc1cc(=O)[nH]c(S)n1` as the molecule, how does the Inhibition % read?
Its Inhibition % is 52.6%.

For `CC(Nc1ccc(C#N)nc1)C(O)c1ccc(F)cc1` (stereo not drawn), which Inhibition % is on record?
Its Inhibition % is 6.52%.
